# Data: the antibiotic and cytotoxicity screens of Wong et al. (2023)
# The other results are listed elsewhere or left out.
# Experiments:
# HSkMC = human skeletal muscle cells; test: cytotoxicity call (relative viability < 0.9); details: 10 µM
# HepG2 = test: cytotoxicity call (relative viability < 0.9); details: 10 µM
# S. aureus RN4220 = test: growth inhibition call (relative growth <= 0.2); details: 50 µM
SMILES,cytotoxicity call (HSkMC),cytotoxicity call (HepG2),growth inhibition call (S. aureus RN4220)
Oc1cc(O)c2c(c1)OC(c1ccc(O)c(O)c1)C(O)C2 (stereo not drawn) [CIANIDANOL [+-catechin] ],inactive,inactive,
COc1ccc(CN(C)C[C@H]2OCCCC[C@@H](C)Oc3ccc(NS(=O)(=O)c4ccc(Cl)cc4)cc3C(=O)N([C@H](C)CO)C[C@H]2C)cc1,inactive,inactive,inactive
"CC(C)=CCCC(C)=CCCC(C)=CCO [trans,trans-FARNESOL]",,,inactive
COc1cc(C)c(C=CC=CC=CC=CC(=O)O)c(C)c1C,,,inactive
Cc1ccc(S(=O)(=O)Nc2cccc3c2O[C@H](CN(C)S(=O)(=O)c2cn(C)cn2)[C@@H](C)CN([C@@H](C)CO)C3=O)cc1,inactive,inactive,inactive
C[C@@H]1CCCCO[C@@H](CN(C)CC2CCCCC2)[C@@H](C)CN([C@@H](C)CO)C(=O)c2cc(NC(=O)Nc3ccc4c(c3)OCO4)ccc2O1,inactive,active,inactive
O=C(O)C1=C[C@@H](O)[C@H](O)[C@H](O)C1,,,inactive
CC1(C)CCC2=C(O1)C(=O)c1ccccc1C2=O [alpha-LAPACHONE],,,inactive
CCCCCOc1ccc(-c2ccc(-c3ccc(C(=O)N[C@H]4C[C@@H](O)[C@@H](O)NC(=O)[C@@H]5[C@@H](O)[C@@H](C)CN5C(=O)[C@H]([C@@H](C)O)NC(=O)[C@H]([C@H](O)[C@@H](O)c5ccc(O)cc5)NC(=O)[C@@H]5C[C@@H](O)CN5C(=O)[C@H]([C@@H](C)O)NC4=O)cc3)cc2)cc1,,active,inactive
Cn1ncc(Br)c1C(=O)O,,,inactive
CC1(C)CCC2=C(O1)c1ccccc1C(=O)C2=O [beta-LAPACHONE],,,inactive
O=C(O)C1=C[C@@H](O)[C@@H](O)[C@H](O)C1,,,inactive
COc1cccc(S(=O)(=O)N(C)C[C@@H]2OCc3cnnn3CCCC(=O)N([C@@H](C)CO)C[C@H]2C)c1,inactive,inactive,inactive
CC(C)(C)CC(C)(C)c1ccc(OCCOCC[N+](C)(C)Cc2ccccc2)cc1.[Cl-],,,active
CCC(C)(C)C(=O)OC1CC(C)C=C2C=CC(C)C(CCC3CC(O)CC(=O)O3)C21 (stereo not drawn),,,inactive
O=C(c1ccccc1)c1ccccc1,,,inactive
Nc1c2ccccc2nc2ccccc12,,active,inactive
CC(C(=O)O)c1cccc(C(=O)c2ccccc2)c1 (stereo not drawn),,,inactive
O=C(C[C@H]1CC[C@H]2[C@@H](COC[C@H](O)CN2S(=O)(=O)c2ccccc2)O1)NCCN1CCCCC1,inactive,inactive,inactive
CC(C)CN(C[C@@H](O)[C@H](Cc1ccccc1)NC(=O)O[C@H]1CO[C@H]2OCC[C@H]21)S(=O)(=O)c1ccc(N)cc1,,,inactive
NC(=O)C1N=CN([C@@H]2O[C@H](CO)[C@@H](O)[C@H]2O)C1=O (stereo partly drawn),inactive,inactive,inactive
CN(C)CCCN1c2ccccc2Sc2ccc(C(F)(F)F)cc21.Cl,,,inactive
COc1ccc(CCN(C)CCCC(C#N)(c2ccc(OC)c(OC)c2)C(C)C)cc1OC.Cl (stereo not drawn),,,inactive
CCC[C@@H]1C[C@@H](C(=O)N[C@@H]([C@H]2O[C@H](SC)[C@H](OP(=O)(O)O)[C@@H](O)[C@H]2O)[C@H](C)Cl)N(C)C1,inactive,inactive,inactive
CC1(C)CCC2=C(O1)c1ccccc1C(=O)C2=O [beta-LAPACHONE ],inactive,inactive,
